Data reported in ChEMBL document CHEMBL1157539, “Thousands of chemical starting points for antimalarial lead identification” (Nature, 2010).
Over roughly 13,000 compounds, “IFI” has its median near 4; the highest 2% begin near 17. Some of the results follow.

Experiment: GSK_TCMDC: Inhibition Frequency Index (IFI). The number of non-kinase HTS assays where a compound showed > 50 % inhibition, expressed as a percentage of the number of such assays in which the compound was tested (-0 is zero)
Type: functional

SMILES	IFI
Cc1ccccc1C1CCN(C2CCC(NC(=O)/C=C/c3cccc(Cl)c3Cl)CC2)CC1 (stereo unspecified)	11.5%
CCN(CC)CCN(Cc1ccc(-c2ccc(C(F)(F)F)cc2)cc1)C(=O)Cn1c(CCc2cccc(F)c2F)nc(=O)c2ccc(F)cc21	3.03%
COc1cc2ncnc(Nc3ccc4nc(Cc5ccccc5)[nH]c4c3)c2cc1OC	2.21%
CN(C)C(CNC(=O)c1cc(-c2ccncc2)c(-c2cc3ccccc3[nH]2)o1)c1ccccc1 (stereo unspecified)	7.46%
CO/C(=C\C=C\c1cc2cc(Cl)c(Cl)cc2[nH]1)C(=O)NCCCNCCN(C)c1ccccc1	13%
c1ccc([C@H]2CN3CCSC3=N2)cc1	-0%
CC(C)(C)c1ccc(CN2CCC(NC(=O)c3ccc(-c4cccc(F)c4)s3)CC2)cc1	12.5%
C(=N\Nc1nccc2sc(-c3cccnc3)cc12)/c1cccnc1	4.26%
Cc1cnc(N)c(/C=C/c2cncc(C(=O)NCCc3ccc(Cl)cc3Cl)c2)c1	5.56%
C=CCN1C(=O)C(C(C)=O)=C(O)C1c1ccccc1 (stereo unspecified)	1.52%
COc1cccc(NC(=O)Nc2cc(-c3ccc4[nH]ncc4c3)cc3c2CNC3=O)c1	-0%
CN1CCC(OC(=O)c2cc3cc(-c4ccccc4)ccc3n2S(=O)(=O)c2ccccc2)CC1	8.44%
CCc1cccc(-n2c(=O)c3cccnc3n2CC(=O)NC2CCCC2)c1	1.39%
CC(O)C1CCCCN1C(=O)c1cccc(-c2ccc(-c3nc4cc(C(F)(F)F)ccc4[nH]3)cc2)c1 (stereo unspecified)	9.43%
Cc1cccc2nc(-c3ccc(-c4ccc(CN5CCCCC5)cc4)cc3)[nH]c12	7.04%
O=c1cc(NC[C@H]2CCC[C@@H]2NC2CCCc3c2[nH]c2ccccc32)[nH]c2ccccc12 (stereo partly specified)	4.29%
Cc1cc(N(C)C)nc(Nc2ccc(NC(=O)c3ccccc3F)cc2)n1	5.41%
CC(C)(C)Cn1cc(-c2ccc(C(=O)NCCc3ccc(S(C)(=O)=O)cc3)cc2)c(N)n1.CC(C)(C)Cn1ncc(-c2ccc(C(=O)NCCc3ccc(S(C)(=O)=O)cc3)cc2)c1N	-0%
CN1CCN(Cc2cccc(-c3ccc4c(Nc5cc(O)c(Cl)cc5F)ccnc4c3)c2)CC1	4.69%

SMILES	IFI
c1ccc(-c2n[nH]cc2Nc2ccnc3ccccc23)nc1	8.26%
Cc1cc(NCC2CCN(CC3CCCCC3)C2)nc(Nc2ccc(Br)cc2)n1 (stereo unspecified)	3.95%
O=C(Nc1cccc(-c2ccc(-c3nc4ccccc4[nH]3)cc2)c1)c1ccncc1	10.2%
CCCC1N=C(N)N=C(N)N1c1cccc([N+](=O)[O-])c1 (stereo unspecified)	0.73%
COc1cc2nccc(Nc3ccc(OCc4ccccc4)cc3)c2cc1OC	5.84%
O=c1cc(NCCC(CNCc2ccoc2)NCc2cc(Br)cc(Br)c2)[nH]c2ccccc12 (stereo unspecified)	5.19%
Cc1cc(=NN=Cc2ccc(Cl)cc2)c2cc(C(F)(F)F)ccc2[nH]1	0.77%
O=C(/C=C/c1ccc(Cl)c(Cl)c1)NCCCCCN1CCCN(C(=O)Nc2ccc(Cl)c(Cl)c2)CC1	7.89%
CCOc1cccc(C(=O)Nc2cccc(CN3CCCN(Cc4ccc(O)cc4)CC3)c2)c1	1.54%
Cc1cccc2nc(-c3cccc(-c4ccc(NC(=O)C(C)CN5CCOCC5)cc4)c3)[nH]c12 (stereo unspecified)	2.78%
O=C(/C=C/c1ccc(Cl)c(Cl)c1)NCCCCCN1CCC(NC(=O)Nc2cc(Cl)nc(Cl)c2)CC1	1.59%
Cc1cc(N2CCN(C)CC2)nc2ccc(NC(=O)Cc3cccc(C(F)(F)F)c3)cc12	4.23%
COc1cc2nc(Cl)nc(Nc3ccncc3)c2cc1OC	-0%
CCC(C)NS(=O)(=O)c1ccc2nc(Nc3ccc(C)c(Cl)c3)n(C(C)C(C)C)c2c1 (stereo unspecified)	5.19%
Cc1nc(C)c(-c2ccc(Oc3ccc(Cl)cc3)c(Cl)c2)c(O)c1Br	10.7%
CCC(=O)Nc1nnc(Cc2ccc(OC)c(OC)c2)s1	0.75%
O=C(Nc1cccc(-c2cccc(-c3nc4cc(F)ccc4[nH]3)c2)c1)Nc1ccc(F)c(F)c1F	10.1%
CC(C)(CNC(=O)[C@H]1CCCCN1)c1nc(-c2ccc(Cl)c(O)c2)c(-c2ccncc2)[nH]1	-0%
CCOC(=O)c1ccc(NC(=O)N(Cc2ccc(-c3cccc(CN4CCNCC4)c3)cc2)C2CCN(Cc3ccccc3)CC2)cc1	3.7%

SMILES	IFI
CC(=O)Nc1ccccc1OCc1cc2cc(C(=O)N3CCC(N4C(=O)OCc5ccccc54)CC3)ccc2o1	8.15%
O=C(Nc1nc(-c2ccccn2)cs1)c1ccccc1COc1ccccc1	7.06%
COc1ccc(CNC2Cc3ccccc3C2)cc1-c1cccc(S(=O)(=O)NCCN2CCCC2)c1	13.5%
COc1cc(CCNc2nc(NCc3ccccc3-c3ccccc3)nc(N3CCC(N)CC3)n2)ccc1O	7.58%
CC(C)CNCc1ccc(-c2ccc(CN(CCCN3CCN(C)CC3)C(=O)CCC3CCCC3)cc2)cc1	8.16%
CCCN1CCN(c2ccccc2NS(=O)(=O)c2ccc(C(=O)Nc3ccc(Cl)cc3)cc2)CC1	3.36%
CCNc1cc(C(=O)N[C@@H](Cc2ccccc2)[C@H](O)CNC(C)(C)Cc2ccccc2)cc(N2CCCC2=O)c1	2.84%
CC(=O)c1cccc(S(=O)(=O)NCCCNc2nc3cc(C)cc(C)c3cc2C#N)c1	1.49%
COc1ccc(Nc2nccc(N3CCC(NS(=O)(=O)c4ccc(NC(C)=O)cc4)C3)n2)cc1 (stereo unspecified)	1.54%
O=C(c1ccc(-c2cccc(-c3nc4cc(C(F)(F)F)ccc4[nH]3)c2)cc1)N1CCCCC1CN1CCC(O)C1 (stereo unspecified)	7.08%
COc1ccc(CCN(C)CCCN2CCC(NC(=O)c3cccc4c(=O)c5ccccc5sc34)CC2)cc1OC	21.9%
O=C(Nc1cccc(F)c1)c1ccc(C(=O)NC2CCN(CC3CCCCC3)CC2)cc1	2.68%
CCOc1cc(CC)ccc1C1CCN(CCCCNC(=O)c2ccc(NC(=O)c3ccc(C#N)cc3)cc2)CC1	8.41%
CCCNCc1ccc(-c2ccc(CNC3Cc4ccccc4C3)cc2)nc1	5.41%
Cc1nc(-c2nc(NCc3ccccn3)ncc2-c2ccsc2)sc1C	4.6%
COc1ccc(O)c(-c2sc(N=C(N)N)nc2-c2ccccc2)c1	8.09%
Cc1ccc(F)c(CN2CCC(N3CC(c4ccccc4)(c4ccccc4)OC3=O)CC2)c1Cl	2.34%
CCNc1cc(C(=O)N[C@@H](Cc2ccccc2)[C@H](O)CNC2(C)CCCCC2)cc(N2CCCCS2(=O)=O)c1	1.43%
